# According to the supplement of paper PMC3334620:
# Whole data set: some 33,000 sequences, median “E-score (-0.5 to 0.5)” near -0.036, cut for the highest 2% near 0.37. Some of the results follow.
# Molecular target: T1, Yer064c (UniProt P40041)
# T1 sequence: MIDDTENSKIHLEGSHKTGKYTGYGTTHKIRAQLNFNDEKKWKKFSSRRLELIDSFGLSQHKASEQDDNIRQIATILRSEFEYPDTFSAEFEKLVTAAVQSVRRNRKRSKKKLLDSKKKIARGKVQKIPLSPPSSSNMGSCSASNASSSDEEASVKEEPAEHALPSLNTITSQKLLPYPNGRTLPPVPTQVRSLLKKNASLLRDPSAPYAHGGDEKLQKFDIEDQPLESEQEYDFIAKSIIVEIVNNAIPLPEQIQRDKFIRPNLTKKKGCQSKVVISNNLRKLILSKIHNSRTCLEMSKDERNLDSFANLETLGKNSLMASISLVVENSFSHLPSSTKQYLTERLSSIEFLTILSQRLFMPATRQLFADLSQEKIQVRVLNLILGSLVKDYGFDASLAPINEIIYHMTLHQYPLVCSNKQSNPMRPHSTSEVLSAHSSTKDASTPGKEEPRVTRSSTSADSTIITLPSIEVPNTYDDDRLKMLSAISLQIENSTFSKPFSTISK
# Experiment: PBM E-score (8-mer binding enrichment) (E-score (-0.5 to 0.5)); higher = stronger / more preferred TF binding; most listed sequences are background and not binding sites
# Details: protein concentration: 200 nM; construct: GST-full length
# Outline: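 GST-tagged yeast TFs (full-length or DNA-binding domain) were made by PURExpress in vitro transcription/translation and applied at about 100-200 nM to universal all-10-mer Agilent arrays. The arrays were made double-stranded by primer extension, on fresh or once-stripped slides. Bound protein was detected with fluorescent anti-GST, and scans were normalised with masliner. Each ungapped eight-base word, pooled with its reverse complement, received an E-score (modified Wilcoxon-Mann-Whitney statistic) from the Universal PBM Analysis Suite.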
row,Sequence,PBM E-score
1,CTGTTAAC,0.00673
2,CACCTCTA,-0.0715
3,CGATCAGC,-0.19
4,AAGGTTAG,-0.126
5,GGCCAGTA,-0.148
6,AGATCCCG,-0.0163
7,CGTATTTA,-0.0843
8,CAGGGCCC,-0.085
9,ACTCTCAA,0.257
10,AGGCTACA,0.0571
11,GGCCTCCC,-0.39
12,ACTCCCAT,0.201
13,CTTCTGGA,-0.116
14,AGAATTCA,-0.079
15,ACTGCAGT,0.25
16,TGCTTCCA,-0.182
17,AGGGCCAG,-0.139
18,ACACATTG,0.0326
19,CGCTGTAA,0.11
20,ACGAACAT,0.0393
21,ATTTTCGG,0.147
22,TTATACAA,0.0882

row,Sequence,PBM E-score
1,ATTGACTG,0.275
2,CCGGGACG,-0.357
3,CATCTCCA,-0.07
4,ATAAGGAA,-0.134
5,GGGATTAA,0.166
6,GACATGCC,-0.101
7,AGAAATCT,-0.044
8,GTCATCTA,0.35
9,GTGTTGCA,-0.0318
10,AGCCCTAC,-0.205
11,CAATAGCG,-0.227
12,CTATTAAC,0.0536
13,TGGGAGAA,-0.171
14,ACATCCGC,-0.134
15,ATCAGCCG,0.223
16,ACTCCCAG,0.122
17,ACAGGAGA,-0.0335
18,CATCCGAC,0.121
19,ACAGGATG,-0.068
20,CTCCGTGC,-0.156
21,ACAGGGAC,-0.0116
22,AGATAGAA,-0.0345

row,Sequence,PBM E-score
1,ATCAACAG,0.196
2,CTTATCGA,0.147
3,TAAACCCA,0.00079
4,ACACTATA,-0.058
5,CATGAGGC,-0.17
6,GTCTATAA,0.117
7,AGCTCCAT,-0.174
8,GGTATATA,-0.0295
9,AAGATAGG,-0.142
10,ATTGGGGC,-0.178
11,AAGGCCCG,-0.347
12,AGCATATG,-0.154
13,ACAAATCG,-0.0691
14,GCGATGCC,-0.367
15,GTGAGCAA,0.0822
16,CCCCTCAC,-0.0378
17,GAGTCAGC,0.48
18,CCTAGGAC,-0.0387
19,GGAACTTA,-0.0956
20,AGACATGA,0.289
21,GCTTCTGA,0.0255
22,GCTACGCA,-0.145

row,Sequence,PBM E-score
1,ATTCACAC,0.148
2,AAGAGCGT,-0.163
3,AAGCGGGC,-0.196
4,ATACCTCG,0.0648
5,CCTATCGC,-0.0141
6,AGACGGCA,-0.128
7,ATGGCGCC,-0.173
8,AATCGCGA,0.143
9,TATGTCAA,-0.037
10,CCGATCCG,-0.158
11,CCATAAGC,-0.132
12,AAGTCGCA,0.257
13,GGCAAGGA,-0.132
14,CAGCACTG,-0.241
15,AAGAGAGC,-0.303
16,CCGGTAAA,-0.107
17,ACTCGACC,0.163
18,ATAGATAA,0.00235
19,CACTGTAG,0.114
20,CCACAGGC,-0.119
